Test results reported in the CheMixHub viscosity set.
Further values from the same series stand in other lists.

Assay: xn = mol fraction of the nth substance listed
Details: 101 kPa

OCCCCO + CS(C)=O
318.15 K
Details	viscosity [mPa·s]
x1 = 0.2709	2.87
x1 = 0.3183	3.26
x1 = 0.3663	3.71
x1 = 0.415	4.28
x1 = 0.4644	4.95
x1 = 0.5145	5.74
x1 = 0.5653	6.7
x1 = 0.6169	7.9
x1 = 0.6692	9.3
x1 = 0.7223	11.1
x1 = 0.7762	13.3
x1 = 0.8309	16.2
x1 = 0.8864	19.6
x1 = 0.9428	24.4

CC(C)C(=O)O + O
viscosity [mPa·s]
Details	301.15 K	311.15 K	313.15 K	315.15 K
x1 = 0.0106	0.9656	–	0.7325	0.7031
x1 = 0.0222	1.095	–	0.8254	0.7882
x1 = 0.0348	1.241	0.9774	0.9348	0.885
x1 = 0.0486	1.423	1.111	1.061	1.006
x1 = 0.0545	1.512	1.17	1.115	1.061
x1 = 0.0638	1.651	1.262	1.2	1.154
x1 = 0.0737	1.795	1.357	1.289	1.234
x1 = 0.0806	1.896	1.422	1.349	1.286
x1 = 0.0915	2.068	1.519	1.438	1.361
x1 = 0.1114	2.326	1.675	1.584	1.494
x1 = 0.12	2.415	1.727	1.634	1.546
x1 = 0.129	2.461	1.773	1.68	1.591
x1 = 0.1433	2.516	1.832	1.74	1.652
x1 = 0.1698	2.573	1.912	1.811	1.723
x1 = 0.1999	2.623	1.974	1.872	1.771
x1 = 0.2347	2.672	2.022	1.92	1.819
x1 = 0.323	2.694	2.071	1.973	1.872
x1 = 0.4499	2.558	2.008	1.919	1.831
x1 = 0.4996	2.472	1.951	1.866	1.791
x1 = 0.6404	2.132	1.726	1.658	1.596
x1 = 0.7953	1.717	1.427	1.377	1.317
x1 = 0.9529	1.293	1.107	1.077	1.035

OCCCCO + O
viscosity [mPa·s]
Details	293.15 K	298.15 K	303.15 K	308.15 K	313.15 K	318.15 K	323.15 K
x1 = 0.005	1.126	0.97	0.86	0.779	0.72	0.643	0.586
x1 = 0.01	1.272	1.075	0.96	0.863	0.77	0.7	0.626
x1 = 0.015	1.46	1.193	1.067	0.942	0.853	0.758	0.674
x1 = 0.02	1.616	1.314	1.191	1.068	0.958	0.845	0.737
x1 = 0.1	–	–	–	–	2.209	1.935	–
x1 = 0.2001	–	–	–	–	5.727	4.896	–
x1 = 0.3007	–	–	–	–	7.839	6.635	–
x1 = 0.4006	–	–	–	–	11.6	9.664	–
x1 = 0.4977	–	–	–	–	15.78	13.09	–
x1 = 0.6002	–	–	–	–	20.77	17.21	–
x1 = 0.6982	–	–	–	–	24.88	20.49	–
x1 = 0.7993	–	–	–	–	29.63	24.24	–
x1 = 0.8969	–	–	–	40.8	33.39	27.06	–
